These results are taken from patent publication US20260224736A1, “HSC-SPECIFIC ANTIBODY CONJUGATED LIPID NANOPARTICLES AND USES THEREOF” (GENZYME CORPORATION, priority 2023, published 2026).

In the assay the test system is primary human HSCs. Description: Screen of LNP-Fab and LNP-antibody conjugates for transfection of HSCs (GFP and DiI fluorescence). It counts as cell-based. Particulars: Fab or antibody conjugated to KC3 LNPs with GFP mRNA; 24 and 72 hours; constant RNA concentration 1 pig/mL. Here is the method: HSC media was made using SFEM II media from StemCell™ Technologies as the base media. The SFEM II media was supplemented with the CD34+ expansion supplement to make the final HSC media formulation. Cryovials of 10 million primary human HSCs (isolated from a leukopak of G-CSF and Plerixaflor mobilized patients) were thawed using HSC media. After thawing, 1 mL of media was added dropwise to the vial and the entire volume was transferred to a 15 mL conical tube. 8 mL of additional media was added to the cell suspension and the total number of cells was counted using an NC-202™ automated cell counter. The cells were spun down and resuspended at a concentration of 1 million cells per 1 mL of media. […] On day 3 of culture, the cells were again counted on the NC-202™. […]
Using the methods described in Examples 4 and 5, KC3 LNPs encapsulating GFP mRNA were conjugated with 23 Fabs and commercially-obtained full-length antibody combinations over 3 Fab/antibody densities that target specific cell-surface markers of HSCs, including CD34, CD105 and CD117 (Table 7). […] The GFP mRNA was used to measure transfection, as the mRNA must enter the cell and escape the endosome to be transcribed into protein, allowing for fluorescence. The DiIC(18)5-DS was used as a measure of LNP targeting because the cells will have DiI fluorescence so long as the LNPs are capable of binding to the HSCs. […]

B1: Ab1 (antibody)
heavy: [letters of about 100 residues left out]GPPTYHTNYYYMDVWGKGTTVTVSSASTKGPSVFPLAPSSKSTSGGTAALGCLVKDYFPEPVTVSWNSGALTSGVHTCPAVLQSSGLYSLSSVVTVPSSSLGTQTYICNVNHKPSNTKVDKKVEPKSSDKTHTCGGHHHHHH
light: DIQMTQSPSSVSASVGDRVTITCRASQGISSWLAWYQQKPGKAPKLLIYAASSLQSGVPSRFSGSGSGTDFTLTISSLQPEDFATYYCQQTNSFPYTFGGGTKVEIKRTVAAPSVFIFPPSDEQLKSGTASVVCLLNNFYPREAKVQWKVDNALQSGNSQESVTEQDSKDSTYSLCSTLTLSKADYEKHKVYACEVTHQGLSSPVTKSFNRGES
For B1, the “transfection of primary HSCs with mRNA (GFP and DiI fluorescence)” value is listed as “highest transfection efficiency”.
